Hit rate of the full screen: of about 310,000 compounds, about 18,000 (5.8%) were called active. The inconclusive results got no clear call from the source; some entries with a clear call stand among them for comparison. The call rests on the fitted dose curve; in most records, active means well fitted inhibition curve with a large enough effect; inconclusive means small, poorly fitted or top-dose-only effect, or another doubt; inactive means no such curve, though single readings can be large or run the other way. No potency is given beside an inconclusive call; the fits are too rough.
Assay: Primary qHTS for delayed death inhibitors of the malarial parasite plastid, 48 hour incubation
Conditions: P. falciparum luciferase growth in erythrocytes; series mostly up to 28.7 µM; activity change, negative = inhibition: at the top concentration
In short: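 Luminescence readout; reporter = integrated firefly luciferase in P. falciparum. RBC culture at 2% hematocrit, 0.1% parasitemia final, 37 C/5% CO2; decreased signal taken as growth inhibition.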
For `Cc1noc(C)c1CN(C(=S)NC1CC1)c1ccccc1`, the “activity change, negative = inhibition” value was inactive: -2.26%.
For `C[C@@H]1[C@H](O)C[C@@]23COC(=O)C2=CCCC3[C@@]1(C)CCC1COC(=O)C1` (some centres undefined), the Potency was active: 0.0033 µM.
For `O=C(c1ccc(COc2ccc(Cl)cc2Cl)o1)N1CCCC1`, the “activity change, negative = inhibition” value was inactive: 16.9%.
With `NS(=O)(=O)c1ccc(Sc2nc3ccccc3s2)c([N+](=O)[O-])c1` the “activity change, negative = inhibition” value was inactive: -13.8%.
For `CC(C)(C)OC(=O)NCc1ccc(CNC(=O)c2[nH]cnc2C(=O)N[C@@H](Cc2ccccc2)C(=O)OC(C)(C)C)cc1`, the Potency was active: 10.4 µM.
With `Cc1cc(N(C)/N=C/c2ccccc2)nc(-c2ccccc2O)n1` the Potency was inconclusive [inhibitor, single point].
In the case of `O=S(=O)(c1cccc(C(F)(F)F)c1)N1CCN(C(=S)NCc2ccco2)CC1`, the Potency is reported as active: 4.65 µM.
For `CCCCCCCNC(=O)C1(CC2CC(c3ccc(Cl)cc3)=NO2)CCN(C(=O)Cc2ccc(F)cc2)CC1` (centres undefined), the “activity change, negative = inhibition” value was inactive: 1.2%.
With `COc1ccccc1C(=O)NNC(=O)c1cccc(C)c1` the “activity change, negative = inhibition” value was inactive: 110%.
In the case of `O=C(NCc1ccco1)c1cc2ccccc2o1`, the “activity change, negative = inhibition” value is reported as inactive: 18.8%.
In the case of `O=C(NC(=S)Nc1ccccc1N1CCCC1)c1ccco1`, the Potency is reported as inconclusive [inhibitor, partial curve].
With `COc1ccc(CNC(=O)CCSc2nc(-c3ccc4c(c3)OCO4)cc(C(F)(F)F)n2)cc1` the Potency was inconclusive [inhibitor, single point].
In the case of `CCOc1ccc(N(CC(=O)NC2CCCCC2)S(=O)(=O)c2ccccc2)cc1`, the Potency is reported as inconclusive [inhibitor, partial curve].
With `Cc1ccc(-c2c(C(=O)NNC(=S)NCC3CCCO3)csc2C)cc1` (centres undefined) the Potency was inconclusive [inhibitor, partial curve, poor fit].
With `COc1ccc(C(=O)N=C2SC3CS(=O)(=O)CC3N2Cc2ccc(F)cc2)cc1` (centres undefined) the Potency was inconclusive [inhibitor, single point].
For `Cc1ccc(OCc2cc(C(=O)NCC(C)(C)N3CCOCC3)no2)cc1C`, the Potency was inconclusive [inhibitor, partial curve, poor fit].
In the case of `CCOCCCNC(=O)CCNS(=O)(=O)c1ccc(C)cc1`, the “activity change, negative = inhibition” value is reported as inactive: 4.55%.
In the case of `O=c1cc(O)c2sc(Nc3ccc(Cl)c(F)c3)nc2[nH]1`, the Potency is reported as active: 1.65 µM.
In the case of `O=C(COc1ccc(Cl)cc1Cl)OCC(=O)N1CCCc2ccccc21`, the “activity change, negative = inhibition” value is reported as inactive: 0.416%.
With `CCOc1ccccc1CN1CCNC(=O)C1CC(=O)N(C)C1CCOCC1` (centres undefined) the Potency was inconclusive [inhibitor, partial curve, poor fit].
For `COc1ccccc1OCC(=O)NCCSCc1ccccc1Cl`, the Potency was inconclusive [inhibitor, single point].
In the case of `C=CCn1c(=O)c(C(=O)Nc2ccccc2OC)c(O)c2ccccc21`, the Potency is reported as inconclusive [inhibitor, full curve, poor fit].
With `COc1ccc(/C=N/Nc2nc(N)cc(Cl)n2)cc1OC` the “activity change, negative = inhibition” value was inactive: 13%.
In the case of `COc1ccc(CCNC(=O)CCCn2c(SCC#N)nc3ccccc3c2=O)cc1OC`, the Potency is reported as inconclusive [inhibitor, partial curve].
For `COc1ccc(/C=N/NC(=O)c2nc(-c3ccccc3)cc(-c3ccccc3)n2)cc1O`, the Potency was inconclusive [inhibitor, single point].
For `CC1CC(C)CN(CCOc2ccccc2-c2ccccc2)C1` (centres undefined), the Potency was inconclusive [inhibitor, single point].
With `CSc1ccc(CN2CCC(Oc3ccc(C(=O)N4CCCC4)cc3)CC2)cc1` the Potency was inconclusive [inhibitor, single point].
For `COc1ccc(S(=O)(=O)N(C)C)cc1NCC(=O)Nc1cccc(C#N)c1`, the Potency was inconclusive [inhibitor, single point].
For `COC(=O)c1ccc(COc2ccc(C3C4=C(CCCC4=O)Nc4onc(C)c43)cc2)cc1` (centres undefined), the Potency was inconclusive [inhibitor, single point].
For `Cc1ccccc1Cn1cc(NC(=O)c2noc3c2CC(C(C)(C)C)CC3)cn1` (centres undefined), the Potency was inconclusive [inhibitor, single point].
For `COc1ccc(CC(=O)Nc2ccc(F)c(Cl)c2)cc1S(=O)(=O)N1CCOCC1`, the Potency was active: 6.57 µM.
With `CNC(=S)N(Cc1cccs1)Cc1cc2cc(OC)ccc2[nH]c1=O` the Potency was inconclusive [inhibitor, single point].
For `CC(C)N(Cc1ccccc1)C(=S)NC(=O)C1(C)CC1(Cl)Cl` (centres undefined), the Potency was inconclusive [inhibitor, single point].
For `CCOC(=O)c1sc(=S)n(-c2ccccc2)c1SC`, the Potency was active: 11.7 µM.
With `COc1cc(OC)c(C#N)c(S(=O)(=O)Cc2ccccc2)c1` the “activity change, negative = inhibition” value was inactive: 0.184%.
For `COc1ccc(CCC(=O)Nc2cccc(S(=O)(=O)N3CCCCCC3)c2)cc1OC`, the Potency was active: 10.4 µM.
In the case of `CCCCCCCC(=O)NNC(=O)c1ccc([N+](=O)[O-])cc1`, the Potency is reported as inconclusive [inhibitor, single point].
In the case of `COc1ccc(C[C@H]2CN3C(=NC[C@@H]3C)N2CCNC(=O)CCC2CCCCC2)cc1`, the Potency is reported as inconclusive [inhibitor, single point].
In the case of `CCC(C)(C)n1nnnc1C(c1cccs1)N1CCc2ccccc21` (centres undefined), the Potency is reported as active: 9.28 µM.
In the case of `COc1nccc(Nc2ccccc2)c1C#N`, the “activity change, negative = inhibition” value is reported as inactive: 9.51%.
For `CCCCOc1ccc(C(=O)N2CCN(CC(=O)Nc3ccc(C)cc3)CC2)cc1OC`, the Potency was inconclusive [inhibitor, partial curve].
For `CN(CC(=O)Nc1ccccc1Cl)C(=O)COC(=O)/C=C/c1ccc(C(F)(F)F)cc1`, the Potency was inconclusive [inhibitor, partial curve].
In the case of `CCc1cc(C(=O)Cc2ccc(F)cc2)c(O)cc1O`, the Potency is reported as inconclusive [inhibitor, partial curve, poor fit].
With `CC(=O)c1ccc(S(=O)(=O)N2CCc3ccccc3C2)cc1` the “activity change, negative = inhibition” value was inactive: 12.5%.
With `CC(C)(C)CN1CCN(Cc2cccnc2)CC1CCO` (centres undefined) the “activity change, negative = inhibition” value was inactive: -13.4%.
With `Cc1ccnc2nc(C(=O)Nc3nccs3)nn12` the “activity change, negative = inhibition” value was inactive: 68.8%.
With `CC1=NN(C(N)=S)C(=O)C1N=Nc1ccc(Br)cc1` (centres undefined) the Potency was active: 9.28 µM.
With `CC(C)Oc1ccc(CNC(=O)C2CCN(C(=O)N3CCOc4ccccc43)CC2)cc1` the Potency was inconclusive [inhibitor, single point].
In the case of `Cc1noc(C)c1CSCC(=O)Nc1ccc(S(C)(=O)=O)cc1`, the “activity change, negative = inhibition” value is reported as inactive: -17%.
For `COc1ccc(NC(=O)C2CCN(S(=O)(=O)c3ccc(N4CCCC4=O)cc3)CC2)cc1OC`, the Potency was inconclusive [inhibitor, partial curve, poor fit].
In the case of `CCCCn1nnnc1SCC(=O)NC1CCCCC1`, the “activity change, negative = inhibition” value is reported as inactive: -1.1%.
In the case of `COc1cccc(-c2csc(N3CCN(C(=S)Nc4ccccc4OC)CC3)n2)c1`, the Potency is reported as inconclusive [inhibitor, single point].
With `Cc1onc(-c2c(F)cccc2Cl)c1C(=O)NC1CC1` the “activity change, negative = inhibition” value was inactive: 12.8%.
With `O=C(CN1CCC(Cc2ccccc2)CC1)NCCc1ccc(F)cc1` the Potency was inconclusive [inhibitor, partial curve, poor fit].
In the case of `CCC(=O)N1CCC2(CC1)Oc1ccc(F)cc1C(=O)C21CC(c2cccnc2)=NO1` (centres undefined), the “activity change, negative = inhibition” value is reported as inactive: 48.4%.
In the case of `O=C(NNc1nc2c(F)cccc2s1)c1ccc(F)cc1`, the Potency is reported as inconclusive [inhibitor, single point].
With `Cc1ccc(-n2nc3c(=O)n(CC(=O)NCCCc4ccccc4)nc(C)c3c2C)cc1` the “activity change, negative = inhibition” value was inactive: 12.6%.
In the case of `CCOCCCNS(=O)(=O)c1ccc(NC(=O)c2ccc(OC)c([N+](=O)[O-])c2)cc1`, the Potency is reported as inconclusive [inhibitor, partial curve, poor fit].
With `COc1ccccc1/C=C/C(=O)Nc1cccnc1Cl` the “activity change, negative = inhibition” value was inactive: 40.9%.
For `Cc1ccccc1Cn1c2ccccc2c2cnn(CC(=O)NCc3ccccn3)c(=O)c21`, the Potency was inconclusive [inhibitor, partial curve, poor fit].
In the case of `O=C(NCC1(O)CCCCC1)C1CCC(=O)N(Cc2cccc(C(F)(F)F)c2)C1` (centres undefined), the “activity change, negative = inhibition” value is reported as inactive: 13%.
For `Nc1ncnc(N)c1N=Nc1ccccc1`, the Potency was inconclusive [inhibitor, full curve].
With `Nc1ccc(C(=O)N/N=C\c2ccc(OC(=O)c3ccccc3Cl)cc2)cc1` the “activity change, negative = inhibition” value was inactive: 33.7%.
In the case of `COc1ccc(C(C)=O)cc1CSc1nnc(-c2ccc(Cl)cc2)n1-c1ccccc1`, the Potency is reported as inconclusive [inhibitor, full curve, poor fit].
With `Cc1cc(NC(=O)c2noc3c2CCCC3)nn1Cc1ccc(Cl)cc1` the “activity change, negative = inhibition” value was inactive: 11.1%.
With `CCN(CCS(=O)(=O)c1ccc(Cl)cc1)C(=O)Nc1ccccc1` the Potency was inconclusive [inhibitor, partial curve, poor fit].
With `CCOC(=O)C1C(=O)CC(C)(O)C(C(=O)OCC)C1c1ccc(Br)o1` (centres undefined) the Potency was inconclusive [inhibitor, single point].
With `CN(C)c1ncc(S(=O)(=O)c2ccccc2)c(-c2ccc(Cl)cc2Cl)n1` the Potency was inconclusive [inhibitor, partial curve, poor fit].
In the case of `CCOc1ccc2nc(Cl)c(C3CC(c4ccccc4)=NN3C(=O)c3cccs3)cc2c1` (centres undefined), the Potency is reported as inconclusive [inhibitor, partial curve].
With `Brc1ccccc1OCCCN1CCCC1` the “activity change, negative = inhibition” value was inactive: -11.4%.
In the case of `CCN(CC)S(=O)(=O)c1ccc2nc(NC(=O)c3ccco3)sc2c1`, the “activity change, negative = inhibition” value is reported as inactive: 40.8%.
With `Cc1ccc(SC2=C(C(=O)O)CCCC2)cc1` the “activity change, negative = inhibition” value was inactive: 25.2%.
In the case of `Cc1ccc(Cn2ccc(NC(=O)c3cc(C4CC4)on3)n2)cc1`, the Potency is reported as inconclusive [inhibitor, partial curve].
For `C/C=C(\CS(=O)(=O)c1ccccc1)S(=O)(=O)c1ccccc1`, the Potency was inconclusive [inhibitor, full curve, poor fit].
On the % scale 0 is the no-effect control and ±100 the full control effect; potency means the concentration at half of the fitted maximal effect; tags describe the fitted curve by direction and shape.
